From PubChem BioAssay AID588342 (National Center for Advancing Translational Sciences (NCATS), 2011)
Among all 360,000 compounds or so, about 25,000 (6.9%) were called active. This list was built around the results that the source calls inconclusive (neither active nor inactive); the mix of calls is not that of the screen. The call rests on the fitted dose curve; in most records, active means well fitted inhibition curve with a large enough effect; inconclusive means small, poorly fitted or top-dose-only effect; inactive means flat fitted curve, though single readings scatter. Potencies of inconclusive entries are doubtful fits and often do not repeat.

biological target: Luciferin 4-monooxygenase (Photinus pyralis) (UniProt P08659); experiment: qHTS profiling assay for firefly luciferase inhibitor/activator using purifed enzyme and Km concentrations of substrates (counterscreen for miR-21 project); settings: purified FLuc, luminescence inhibition; activity change, negative = inhibition: at 57.5 µM (top of the series); further: nearly all actives have a fitted effect of over 55% in size;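 on activity change, negative = inhibition: plate controls were vehicle for no effect and reference inhibitor for full effect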
Method in brief: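 Purified P. pyralis luciferase, 10 nM final, with Km-level 10 uM D-luciferin and 10 uM ATP in 50 mM Tris acetate pH 7.5, 10 mM Mg acetate, 0.01% Tween-20, 0.05% BSA; 6-point qHTS titration about 60 µM downward; luminescence read.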
Potency means the concentration at half of the fitted maximal effect; tags describe the fitted curve by direction and shape.

Chain of UniProt P08659 (P08659 whole entry, looked up): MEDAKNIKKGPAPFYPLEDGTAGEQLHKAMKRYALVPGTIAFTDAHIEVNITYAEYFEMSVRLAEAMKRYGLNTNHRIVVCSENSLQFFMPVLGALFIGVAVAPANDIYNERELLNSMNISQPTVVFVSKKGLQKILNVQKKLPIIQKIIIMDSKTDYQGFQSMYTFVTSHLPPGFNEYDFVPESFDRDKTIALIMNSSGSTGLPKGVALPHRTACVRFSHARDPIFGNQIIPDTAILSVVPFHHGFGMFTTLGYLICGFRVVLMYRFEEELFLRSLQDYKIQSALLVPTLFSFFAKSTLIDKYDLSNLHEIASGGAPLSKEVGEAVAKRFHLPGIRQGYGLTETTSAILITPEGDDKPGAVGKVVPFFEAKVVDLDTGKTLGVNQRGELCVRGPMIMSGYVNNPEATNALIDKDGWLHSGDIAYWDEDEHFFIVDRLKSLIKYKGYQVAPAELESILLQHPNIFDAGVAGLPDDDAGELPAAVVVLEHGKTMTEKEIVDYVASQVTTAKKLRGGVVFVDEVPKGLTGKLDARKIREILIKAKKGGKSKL

Row | SMILES | Potency | activity change, negative = inhibition
1 | COc1ccc(NC(=O)NC2CCCCCCC2)cc1OC | inconclusive: 15.1 µM [inhibitor, partial curve] | –
2 | O=C(N/N=C/c1c[nH]c2ccccc12)c1ccc([N+](=O)[O-])cc1Cl | inconclusive: 37.9 µM [inhibitor, single point] | –
3 | O=C(CCCN1C(=O)/C(=C/c2ccccc2Cl)SC1=S)N1CCOCC1 | inconclusive: 37.9 µM [inhibitor, single point] | –
4 | COc1ccccc1OCC(=O)Nc1ccc2c(c1)OCCO2 | active: 16.9 µM | –
5 | Cc1ccc(SCC(=O)Nc2cccc(C(=O)NC(C)(C)C)c2)cc1 | inconclusive: 5.36 µM [inhibitor, partial curve, poor fit] | –
6 | O=C(CSc1n[nH]c(-c2ccccc2Cl)n1)N1CCN(c2ccccc2)CC1 | – | inactive: -2.23%
7 | COc1ccc(C(=O)Nc2cc(C)on2)cc1OC | – | inactive: -6.14%
8 | COC(=O)c1ccc(/C=C/c2c(-c3ccsc3)oc3ccc(N4CCOCC4)cc23)cc1 | inconclusive: 13.5 µM [inhibitor, partial curve, poor fit] | –
9 | Cc1ccccc1C(=O)NC(CC(C)C)C(=O)OCC(=O)c1c(N)n(C)c(=O)n(C)c1=O (centres undefined) | – | inactive: -0.926%
10 | CCOC(=O)CNS(=O)(=O)c1cc(-c2nnc(Nc3cccc(O)c3)c3ccccc23)ccc1C | inconclusive: 23.9 µM [inhibitor, partial curve, poor fit] | –
11 | C/C(CC(=O)Nc1ccccn1)=N\NC(=O)C(=O)Nc1ccccc1C | – | inactive: 0.0003%
12 | O=c1sc(/C=N/Nc2ccccc2)c(Cl)n1Cc1ccccc1 | inconclusive: 4.26 µM [inhibitor, partial curve, poor fit] | –
13 | COc1ccc(-c2cc(C(=O)N3CCCCCC3)no2)cc1OC | active: 23.9 µM | –
14 | C/C(=N\NC(=O)c1cc(-c2ccncc2)nc2ccccc12)c1ccc(OC(F)F)cc1 | inconclusive: 10.7 µM [inhibitor, partial curve, poor fit] | –
15 | Cc1cccc(C(c2sc3nc(-c4ccco4)nn3c2O)N2CCN(c3ccccc3)CC2)c1 (centres undefined) | inconclusive: 21.3 µM [inhibitor, single point] | –
16 | COc1ccc(/C(N)=N/OC(=O)c2ccc3c(c2)OCO3)cc1 | active: 2.13 µM | –
17 | CC(C)N(N=Nc1ccc([N+](=O)[O-])cc1)C(C)C | – | inactive: -0.696%
18 | O=C(c1ccco1)[C@@H]1[C@@H]2C(=O)N(c3ccc(F)cc3)C(=O)[C@@H]2[C@H]2C=Cc3ccccc3N21 | inconclusive: 23.9 µM [inhibitor, single point] | –
19 | Cc1ccc(NC(=O)c2ccc(NC(=O)N3CCSc4nc(C)cc(C)c43)cc2)c(Cl)c1 | – | inactive: -7.88%
